Measured values published in the supplement of paper PMC10338343.
± gives the standard deviation. The list shows a part of the results, in another mix than the full data.

tested on: MIWI (PIWIL1) piRISC loaded with piRNA #1 (30 nt); assay: pre-steady-state target cleavage rate (min^-1); MIWI and MILI are mouse PIWI proteins and EfPiwi is from a freshwater sponge; tags in brackets are library labels; higher = faster piRNA-guided slicing of the target; conditions: guide: piRNA #1 5'p-UGAGGUAGUAGGUUGUAUAGUAUCCAGAGG; auxiliary factor: 500 nM mouse GTSF1
Summary of the method: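 Cleave-'n-Seq reactions paired 0.1 nM transcribed, DNA-blocked target RNA library with 1 nM active affinity-purified piRISC holding one synthetic guide, plus or minus 500 nM GTSF1 partner protein, in HEPES–potassium acetate buffer at 33 °C for 0–8 or 0–960 min. After sequencing of uncleaved targets and normalisation to depth and weakly complementary targets, the pre-steady-state cleavage rate was taken from a burst-and-steady-state fit. Three trials were pooled, and k3 was capped at 0.0001 min^-1.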

Row | Sequence | pre-steady-state target cleavage rate
1 | GGUCUGGAUCCUAUACAACCUACUACCUCA | 1.57 ± 0.11
2 | GGAGAGGAUACUAUACAACCUACUACCUCA [g2:g25:cont:t1A] | 1.44 ± 0.072
3 | GGAGACCUAACUAUACAACCUACUACCAUCA | 0.947 ± 0.095
4 | GCUCUGGAUAGUAUACAACCUAGUACCUCA | 0.296 ± 0.048
5 | GGAGACCAUACUAUACAACGUACUUCCUCA | 0.271 ± 0.03
6 | GGACUGGAUAGUAUACAACCUACUACCUGA | 0.284 ± 0.05
7 | GCUCUGCAUACUAUACAACCUACUUCCUCA | 0.419 ± 0.037
8 | CCUCUGGUUACUAUACAACCUACUACGUCA | 1.18 ± 0.092
9 | GGAGACCUUACUCAUACAACCUACUACCUCA | 0.437 ± 0.049
10 | GGAGACGAUACUAUACAACCUAACUACCUCA | 0.0273 ± 0.0052
11 | GGAGUCGAUACUAUACAACCUACUAGCUCA | 0.139 ± 0.029
12 | GGAGACCUAUGAUAUCAUCCUACAACCUCA | < 0.0001
13 | GGAGACCUAUCUAUACAACCUACUAACUCA | 0.938 ± 0.061
14 | CCUCAGGAUACUAUACAACCUACUACGUCA | 1.31 ± 0.084
15 | GGACUGGAUACUAUACAUCCUACAACCUCA | 0.689 ± 0.067
16 | GGAGACCUUACUAUACAACGUACUACCUGA | 0.186 ± 0.022
17 | GGAGUCGAUACUAUACAUCCUACUACCUCA | 1.45 ± 0.081
18 | GGAGACGAUACUAUCACAACCUACUACCUCA | 1.54 ± 0.12
19 | GGAGACCAUACUAUACCAACCUACUACCUCA | 0.0103 ± 0.0029
20 | GGAGACCAUUCUAAACAACCUACUACCUCA | 0.322 ± 0.053

Row | Sequence | pre-steady-state target cleavage rate
21 | GGAGACCUAUCUAUUCAUCCUACUACCUCA | 0.0812 ± 0.015
22 | GGAGACCAUACUUUACAACCUACAACCUCA | 0.548 ± 0.065
23 | GGAGUGGAAUCUAUACAACCUACUACCUCA | 1.18 ± 0.079
24 | GCUCUGGAUACUAUACAACCUAGUACGUCA | 0.166 ± 0.029
25 | GGAGACCAUACUAUACAACCUACUUCCACA | 0.324 ± 0.04
26 | GGAGACCUAACUAGACAACCUACUACCUCA | 0.56 ± 0.06
27 | GCUCUGGAUACUAUACAUACCUACUACCUCA | 0.00437 ± 0.0036
28 | GGUCAGGAAACUAUACAACCUACUACCUCA | 1.77 ± 0.12
29 | GGAGUGCAUACUAUACAACCUACAACCUCA | 0.36 ± 0.031
30 | GGAGAGCAUACUAUACAACCUACUACCUCA | 1.78 ± 0.11
31 | GGAGACGAUACUAUACAAGCUACUACCUCA | 1.15 ± 0.053
32 | GGUCUGGAUACUAUACAACCUACUACCUCU [g2:g28:cont:t1U] | 1.59 ± 0.11
33 | GGACUGGAUACUAUUCAACGUACUACCUCA | 0.812 ± 0.069
34 | GGAGACCUAUGUAUACGACCUACUACCUCA | 0.0188 ± 0.0031
35 | CCUCUGGCUACUAUACAACCUACUACCUCA | 2.25 ± 0.11
36 | GGAGUGGAUAGUAUACAACCUACAACCUCA | 0.521 ± 0.045
37 | GGAGACCUAACUAUAACAACCUACUACCUCA | 0.25 ± 0.029
38 | GGAGUGGUACUAUACAACCUACUACCUCA | 1.42 ± 0.084
39 | GGACUGGAAACUAUACAACCUACUACGUCA | 0.355 ± 0.053
